Assay results taken from the supplement of paper PMC12217912.
This is one part of the list. Sequences were assembled here from the parent chain. Values near 0.05 are background.

B1: TEV protease; numbered along this chain (parent)
chain: MGESLFKGPRDYNPISSSICHLTNESDGHTTSLYGIGFGPFIITNKHLFRRNNGTLVVQSLHGVFKVKDTTTLQQHLVDGRDMIIIRMPKDFPPFPQKLKFREPQREERICLVTTNFQTKSMSSMVSDTSCTFPSGDGIFWKHWIQTKDGQCGSPLVSTRDGFIVGIHSASNFTNTNNYFTSVPKNFMELLTNQEAQQWVSGWRLNADSVLWGGHKVFMVKPEEPFQPVKEATQL

Variants of: B1
Experiment: raw area under fraction-flipped curve 0-4 h after induction (AUC4h, not background-subtracted), DNA-recorder readout of cleavage of the substrate (dimensionless); higher = more cleavage of the substrate by the protease variant
Details: temperature: 34 °C; time window: 0-4 h after rhamnose induction
Procedure: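 In vivo DNA recorder in E. coli TOP10(DE3) ΔrhaA at 34 °C. Each TEVp single-site mutant (parent TEVp 0) is paired with a single-site variant of the 7-mer TEVs (canonical ENLYFQ|S). The substrate sits between flexible linkers in a Bxb1-sfGFP-TEVs-SsrA fusion, so cleavage stabilises Bxb1 and speeds flipping of a recombination array, read by NGS. The value is the raw area under the fraction-flipped curve over 0-4 h after rhamnose induction (AUC4h), with ≥20 reads per time point. It is not background-subtracted; inactive controls average about 0.047.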
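Also: Bxb1 expression induced with 0.2% (w/v) L-rhamnose at OD600 near 0.5, cultures sampled hourly, flipped fraction per protease–substrate barcode pair counted by paired-end Illumina sequencing.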

Variant | area with substrate ENLYFAS | area with substrate ENLYFCS | area with substrate ENLYFES | area with substrate ENLYFFS | area with substrate ENLYFHS | area with substrate ENLYFIS | area with substrate ENLYFLS | area with substrate ENLYFMS | area with substrate ENLYFNS | area with substrate ENLYFPS | area with substrate ENLYFRS | area with substrate ENLYFSS | area with substrate ENLYFTS | area with substrate ENLYFWS | area with substrate ENLYFYS | area with substrate ENLYFDS | area with substrate ENLYFGS | area with substrate ENLYFKS | area with substrate ENLYFVS
K142L | 0.0643 | 0.0613 | 0.0578 | 0.0769 | 0.0481 | 0.0697 | 0.0598 | 0.0806 | 0.079 | 0.0627 | 0.0792 | 0.0572 | 0.0566 | 0.0546 | 0.0614 | – | – | – | –
I145K | 0.045 | 0.0533 | 0.0485 | 0.0829 | 0.0694 | 0.0625 | 0.0703 | – | – | 0.0543 | 0.0789 | 0.0519 | – | 0.0637 | 0.0599 | 0.0626 | 0.0522 | 0.0533 | 0.0562
Q146C | 0.0534 | – | 0.0686 | 0.0689 | – | 0.0642 | 0.0455 | 0.09 | 0.0644 | 0.0683 | 0.0356 | 0.0647 | 0.0527 | – | 0.0535 | 0.0528 | 0.0477 | 0.0499 | 0.0537
Q146K | 0.0588 | 0.0575 | 0.0586 | 0.0696 | 0.0431 | 0.058 | 0.0561 | 0.0757 | 0.0729 | 0.0696 | – | – | 0.062 | 0.0561 | 0.0887 | 0.0619 | 0.0396 | 0.0639 | 0.0505
Q146T | 0.0655 | 0.0667 | 0.0694 | 0.0566 | – | 0.0605 | 0.0525 | 0.0621 | 0.0597 | 0.0579 | – | 0.0305 | 0.0262 | 0.0598 | – | – | – | 0.0728 | 0.0525
T147Q | 0.0573 | 0.066 | 0.0571 | 0.0778 | 0.0681 | – | – | 0.0657 | – | 0.0629 | 0.0604 | 0.0569 | 0.0589 | – | 0.0502 | – | – | – | 0.0664
K148E | 0.0626 | 0.0749 | 0.0672 | 0.0734 | – | 0.0505 | – | 0.0703 | 0.0604 | 0.0633 | 0.082 | 0.0536 | 0.0552 | 0.0581 | 0.0631 | 0.0589 | – | 0.0473 | –
K148Q | 0.0551 | 0.0608 | 0.0651 | 0.0834 | 0.0688 | – | 0.0591 | 0.0667 | 0.0615 | 0.0652 | 0.0585 | 0.0596 | – | – | – | – | 0.0674 | 0.0587 | 0.061
K148R | 0.0579 | 0.0582 | – | 0.0798 | 0.0623 | 0.0732 | 0.0543 | 0.0818 | 0.0304 | 0.0513 | 0.0575 | 0.0708 | 0.0528 | 0.0497 | – | – | – | – | –
D149Y | 0.0458 | 0.0453 | 0.0626 | 0.0652 | 0.0629 | 0.0488 | 0.0501 | 0.0547 | 0.0593 | 0.0612 | 0.0608 | 0.0538 | 0.0437 | 0.0679 | 0.0532 | 0.074 | 0.0639 | – | 0.0676
G150H | 0.0526 | 0.0762 | 0.0536 | 0.0823 | 0.0519 | 0.0598 | 0.0708 | 0.0565 | 0.0671 | 0.0617 | 0.0624 | – | 0.057 | – | 0.0554 | 0.0608 | 0.0583 | – | 0.0623
Q151E | 0.0433 | 0.0501 | 0.0667 | 0.0674 | 0.0514 | 0.0605 | – | 0.0748 | 0.0637 | 0.0647 | 0.0628 | – | 0.0631 | 0.0628 | – | 0.0677 | 0.0568 | 0.0688 | 0.0403
